# Screen size: about 150,000 compounds; about 540 (0.36%) showed an effect of 50% or more. The list shows a part of the results.
# System: Plasmodium falciparum
# Assay: Primary screen in NF54 nanoGlo assay, in single point, at 2uM, 72h; a lower Z score goes with more inhibition
# Type: functional, Erythrocyte
# Conditions: timepoint 72 hour
SMILES,% Inhibition [%],Z score
Cc1ccc2nc(CNC(=O)c3cnc(C4CC4)nc3O)cn2c1,-4,0.55
O=C(Cn1c(-c2ccccc2)nn(-c2ccc(Cl)cc2)c1=O)NC[C@H](O)CO,-10,1.45
C[C@@H]1CN(C(=O)CCn2nnc3ccccc32)C[C@]1(C)O,-8,1.45
CN(C)C(=O)CO[C@H]1COCC[C@@H]1NC(=O)c1ccc2c(c1)OCCO2,1,-0.07
NC(=O)Cn1ccc(-c2cccc(-c3ncccc3Cl)c2)n1,-10,0.91
Nc1ccc(C(Cc2ccnc3ccccc23)Cc2ccnc3ccccc23)cc1,-3,0.39
CC[C@@H](C)[C@@H](CO)NC(=O)C[C@@H]1NC(=O)N(CCc2ccc(OC)c(OC)c2)C1O (stereo partly specified),-6,0.83
CCCNc1ncc(CN2C[C@@H](CC(=O)O)[C@@H](c3c[nH]nn3)C2)cn1,4,-0.55
Fc1ccc(-c2noc(-c3cnc([C@@H]4CCCO4)s3)n2)c(Cl)c1,3,-0.3
CC(=O)c1nn(-c2ccc(OC(F)(F)F)cc2)nc1Nc1ccccc1N1CCCCC1,-10,1.77
O[C@H]1Cc2ccccc2[C@H]1Nc1cncc(Br)c1,-12,1.71
CN1CC(c2nc(-c3ccncc3)no2)C(C(F)(F)F)C1 (stereo unspecified),-15,2.63
Cc1cc(/C=C2\C=Cc3ccccc32)cc(C)c1N,-18,2.08
CCC[C@H]1CN(C(=O)Cc2ccsc2)C[C@@H]1C(=O)O,-6,0.81
O=C1C[C@@]2(CCCN(C(=O)NCC3(c4cccc(F)c4F)CCCC3)C2)CN1,-14,1.87
Cc1nnc(N2CCO[C@H](c3noc(C(C)C)n3)C2)o1,-9,1.52
CCOc1ccc(NC(=O)Cn2cccc2-c2nnc(C)o2)cc1,-2,0.23
CC(C)C[C@@H](NC(=O)[C@H]1CC[C@H](C(C)C)CC1)C(=O)O,-19,1.99
COC(=O)c1ccc(CNS(=O)(=O)N(C)[C@@H](C)C2CC2)cn1,-9,1.82
CCc1ccc(C(=O)Cn2nc(-c3cccnc3)oc2=S)cc1,-45,5.3
COCC(=O)N(C1CCOCC1)[C@H]1CCN(C(=O)CC2CCCCC2)C1,35,-3.98
O=C(O)c1cc(NC(=O)C2CCCCC2C(=O)N2CCCC2)ccc1Cl (stereo unspecified),-5,0.43
Cc1nncn1CCNC(=O)c1cc(Br)cn1C,3,-0.27
O=C(Nc1nc(C2CC2)cs1)[C@@H]1CCCN1C(=O)c1cccs1,-1,0.14
Cc1ccccc1NC(=O)N1CCC(n2cc(-c3ccc(F)cc3)nn2)CC1,-19,1.79
CC1(C)CCN(C(=O)c2cc3c(s2)CCCC3)C1,-6,0.87
Cn1cc(CC(=O)NCc2cccc(Cl)c2)c2cccnc21,-5,0.9

SMILES,% Inhibition [%],Z score
Cc1cc(N(C)Cc2cnn(-c3ccccc3)c2)nc(C(C)C)n1,-10,1.45
CC(C)CS(=O)(=O)CC(=O)N(CCC#N)c1ccccc1,-13,1.4
CC1CCCC(C(=O)N(C)CCC2CCCCC2)C1 (stereo unspecified),7,-1.36
CN(C)Cc1cc(CC2(NCc3ccncc3)COC2)no1,-7,0.95
COc1cccc(-c2cn3c(-c4ccccc4)c(-c4ccccc4)nc3n2-c2ccc(O)cc2)c1,5,-0.59
Cn1ccc([C@H]2CCCN(S(=O)(=O)CCC(F)(F)F)C2)n1,-8,0.92
C[C@@H](c1ccccc1F)N1CCC(c2nnc3n2CCC3)CC1,-1,0.12
CCC[C@]1(CO)CCCN(C(=O)c2ccc3[nH]c(CO)nc3c2)C1,-2,0.26
COc1cc2c(-c3ccccc3)c(C)oc2cc1CNc1ccc(F)cc1,1,-0.12
Fc1ccccc1OCCn1nnc([C@@]2(C(F)(F)F)CCCN2)n1,-1,0.1
CC(C)(C)OC(=O)[C@@]12CCC[C@H]1CN(C(=O)c1nccnc1N)C2,-22,3.43
CC(=O)N1C[C@H]2CN(C(=O)Cc3cccs3)CC[C@@]2(c2nc(C)n[nH]2)C1,-5,0.78
O=C(Nc1ccc(Cl)c(OC(F)F)c1)N[C@H]1CC[C@H](O)CC1,7,-0.92
Cc1ccnc(NC2CCCCCC2)n1,-9,1.07
CC(=O)Nc1cc(C)ccc1OC(C)=O,-8,1.07
O=C(NCc1cncc(-c2ccoc2)c1)c1ccc(Cl)cc1Cl,15,-1.9
Cc1cnn(CCCNC(=O)NCc2sc(C)nc2C)c1,-1,0.11
COCCc1noc(CNC(=O)Nc2cccc3c4c(oc23)CCCC4)n1,-1,0.07
O=C(NCCc1ccccc1)Nc1cnc2ccccn2c1=O,-7,1.12
CCC(C)C1NC2(CCN(S(=O)(=O)c3ccc(F)cc3)CC2)N(CCCOC)C1=O (stereo unspecified),-15,1.79
CCCCNc1ccc(S(=O)(=O)N2CCOCC2)cc1NCC(=O)Nc1ccc2c(c1)CCC2,-29,3.38
COCCNC(=O)CNC(=O)CN1C(=O)c2ccccc2Oc2ncccc21,-2,0.34
CC(C)Cn1cc(C(=O)N2CCOC[C@@H]2CC(=O)c2ccco2)cn1,2,-0.22
CCc1c(C)nn(CC(=O)N2CCN(c3ccnc4nncn34)CC2)c1C,-2,0.31
COc1ccc(S(=O)(=O)N2C[C@H]3CN(C(=O)Nc4ccccc4C)C[C@@H](C2)O3)cc1,-6,0.52
Cc1ccc(OCC[C@H]2CCN(C(=O)CC(F)(F)F)C2)cc1,-5,1.03

# Reference: ChEMBL document CHEMBL4888484, “Replenishing the malaria drug discovery pipeline: Screening and hit evaluation of the MMV Hit Generation Library 1 (HGL1) against asexual blood stage Plasmodium falciparum ,using a nano luciferase reporter read-out” (2022)
